No constants are given. Whether binding was seen depends on the method and setting. Binding seen in cells or lysates may run through a third protein. Some results given as binding are weak or reduced against the parent protein; the word gives no strength. Sequences can lack the tags named with a protein.
T1: GST–Ino2 TAD1 (aa 1–35) (S. cerevisiae) (UniProt P26798)
T1 sequence: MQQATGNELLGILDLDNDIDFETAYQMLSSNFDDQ

Sequences of proteins named here, by UniProt entry; tags and fusion partners are left off. Residues count along the entry.
UniProt P04386, residues 768-881: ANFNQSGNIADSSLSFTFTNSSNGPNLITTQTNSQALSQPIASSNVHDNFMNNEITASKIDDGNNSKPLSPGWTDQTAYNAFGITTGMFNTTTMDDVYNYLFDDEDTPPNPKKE

T2: GST–Ino2 (comprising TAD1 + TAD2, aa 1–135) (S. cerevisiae) (UniProt P26798)
T2 sequence: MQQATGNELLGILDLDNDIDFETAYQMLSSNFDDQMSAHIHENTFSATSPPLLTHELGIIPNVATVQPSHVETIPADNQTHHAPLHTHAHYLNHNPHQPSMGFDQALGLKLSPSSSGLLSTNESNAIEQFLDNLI

T3: GST–Ino2 TAD2 (aa 101–135) (S. cerevisiae) (UniProt P26798)
T3 sequence: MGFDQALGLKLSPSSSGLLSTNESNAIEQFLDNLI

T4: GST–Ino2 TAD1 F21R (S. cerevisiae) (UniProt P26798)
T4 sequence: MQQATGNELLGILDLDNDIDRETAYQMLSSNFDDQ

T5: GST–Ino2 TAD1 D20K (S. cerevisiae) (UniProt P26798)
T5 sequence: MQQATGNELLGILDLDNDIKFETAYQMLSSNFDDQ

T6: GST–Leu3 TAD (aa 841–886) (S. cerevisiae) (UniProt P08638)
T6 sequence: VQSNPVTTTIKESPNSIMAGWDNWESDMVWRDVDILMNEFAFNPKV

T7: GST–Flo8 TAD (aa 726–799) (S. cerevisiae) (UniProt P40068)
T7 sequence: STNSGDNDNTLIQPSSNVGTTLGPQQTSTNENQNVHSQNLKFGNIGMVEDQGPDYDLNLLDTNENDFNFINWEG

T8: GST–Rap1 TAD (aa 630–671) (S. cerevisiae) (UniProt P11938)
T8 sequence: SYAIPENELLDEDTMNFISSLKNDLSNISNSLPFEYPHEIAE

T9: GST–Aro80 TAD (aa 846–950) (S. cerevisiae) (UniProt Q04052)
T9 sequence: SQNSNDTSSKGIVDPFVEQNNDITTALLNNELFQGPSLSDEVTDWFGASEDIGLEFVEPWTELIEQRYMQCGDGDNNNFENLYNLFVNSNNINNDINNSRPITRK

T10: GST–Swi5 TAD (aa 1–85) (S. cerevisiae) (UniProt P08153)
T10 sequence: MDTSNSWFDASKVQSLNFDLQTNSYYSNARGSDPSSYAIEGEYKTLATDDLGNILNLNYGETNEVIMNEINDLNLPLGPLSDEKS


Legend:
[1] = target: T1, GST–Ino2 TAD1 (aa 1–35) (S. cerevisiae); assay: pull-down; GST fusions (from E. coli) immobilized on GSH sepharose, incubated with total protein extract from E. coli containing the HA fusion; washed twice with buffer A1, eluted with free GSH; anti-HA blot; only the target purified
[2] = target: T2, GST–Ino2 (comprising TAD1 + TAD2, aa 1–135) (S. cerevisiae); assay: as above
[3] = target: T3, GST–Ino2 TAD2 (aa 101–135) (S. cerevisiae); assay: as above
[4] = target: T1, GST–Ino2 TAD1 (aa 1–35) (S. cerevisiae); assay: pull-down; GST fusions (from E. coli) immobilized on GSH sepharose, incubated with total protein extract from S. cerevisiae transformants containing the HA fusion; washed twice with buffer A1, eluted with free GSH; anti-HA blot; only the target purified
[5] = target: T4, GST–Ino2 TAD1 F21R (S. cerevisiae); assay: as above
[6] = target: T2, GST–Ino2 (comprising TAD1 + TAD2, aa 1–135) (S. cerevisiae); assay: as above
[7] = target: T3, GST–Ino2 TAD2 (aa 101–135) (S. cerevisiae); assay: as above
[8] = target: T5, GST–Ino2 TAD1 D20K (S. cerevisiae); assay: as above
[9] = target: T6, GST–Leu3 TAD (aa 841–886) (S. cerevisiae); assay: pull-down; GST fusions (from E. coli) immobilized on GSH sepharose, incubated with total protein extract from E. coli containing the HA fusion; washed twice with buffer A1, eluted with free GSH; anti-HA blot; only the target purified
[10] = target: T7, GST–Flo8 TAD (aa 726–799) (S. cerevisiae); assay: as above
[11] = target: T8, GST–Rap1 TAD (aa 630–671) (S. cerevisiae); assay: as above
[12] = target: T9, GST–Aro80 TAD (aa 846–950) (S. cerevisiae); assay: as above
[13] = target: T10, GST–Swi5 TAD (aa 1–85) (S. cerevisiae); assay: as above
[14] = target: T6, GST–Leu3 TAD (aa 841–886) (S. cerevisiae); assay: pull-down; GST fusions (from E. coli) immobilized on GSH sepharose, incubated with total protein extract from S. cerevisiae transformants containing the HA fusion; washed twice with buffer A1, eluted with free GSH; anti-HA blot; only the target purified
[15] = target: T7, GST–Flo8 TAD (aa 726–799) (S. cerevisiae); assay: as above
[16] = target: T8, GST–Rap1 TAD (aa 630–671) (S. cerevisiae); assay: as above
[17] = target: GST–Gal4 TAD (aa 768–881) (S. cerevisiae) (UniProt P04386); assay: as above
[18] = target: T9, GST–Aro80 TAD (aa 846–950) (S. cerevisiae); assay: as above
[19] = target: T10, GST–Swi5 TAD (aa 1–85) (S. cerevisiae); assay: as above

| Binder | binding [1] | binding [2] | binding [3] | binding [4] | binding [7] | other results |
| --- | --- | --- | --- | --- | --- | --- |
| HA3-Toa1 aa 144–286 (domain or fragment, UniProt P32773 144-286) VTSQPKIEVKPEIELTINNANITTVENIDDESEKKDDEEKEEDVEKTRKEKEQIEQVKLQAKKEKRSALLDTDEVGSELDDSDDDYLISEGEEDGPDENLMLCLYDKVTRTKARWKCSLKDGVVTINRNDYTFQKAQVEAEWV | binds | binds | binds |  |  |  |
| HA-Bdf2 (full-length), synthesized in S. cerevisiae (protein, UniProt Q07442 1-638) MSRTNMDTRHAHSALLAAPQSATANSRSSNSSSESSSNKNNINVGVGDDSGNVSAVSIDDGPHFRDIFHYGHEENYKLASSGITNLNSSSHAHQTLSPISISNASTPESFPEHPLGLERETEPALEAEMEAEELPPHQSKYLLSSIKATKRLKDARPFLKPVDPIALNIPHYFNYVQTPMDLSLIETKLQGNVYHSVEQVTSDFKTMVDNCLNFNGPESSISSMAKRIQKYFEKKLSAMPPRVLPASALKKTSRNRKKNEDMDSPLVIRRSVSTTNDNIGESGNREGVSGGRPKRTIHPPKSKDLFDIYENSKPKSKTLQKKFRTCLKILKVLMSKKNSDINFPFLQPVDPIALNLPNYFDVVKNPMDLGTISNNLMNWKYKTIDQFVDDLNLVFYNCFQFNPEGNEVHSMGKKLKELFNFHWLENQDILNEIETDSDLEEDNYSSSYSSDDEYDDEDINENDITNPAIQYLEQKLKKMEVELQQLKRQELSKLSKERKRKHLGKTLLRRKAMKHSVDDLKKSITDKINELSDLEMNGMIRIIKNSLPADEILTSNEDEIEIDLDILDEATIARIYERYFEKKNNNNSKRKLSGNYSTAPTNKKKKTLKFLEKDEIINNNNYSDSEEDSSDSSDSDSD |  |  |  |  | no binding |  |
| HA-Bdf1 (full-length), synthesized in S. cerevisiae (protein, UniProt P35817 1-686) MTDITPVQNDVDVNGNNVNDDVSSNLKRPIDQGDPSNGLAEEENPANNQLHLKKARLDGDALTSSPAGLAENGIEGATLAANGENGYNATGSGAEDEQQGLKKEEGGQGTKQEDLDENSKQELPMEVPKEPAPAPPPEPDMNNLPQNPIPKHQQKHALLAIKAVKRLKDARPFLQPVDPVKLDIPFYFNYIKRPMDLSTIERKLNVGAYEVPEQITEDFNLMVNNSIKFNGPNAGISQMARNIQASFEKHMLNMPAKDAPPVIAKGRRSSAQEDAPIVIRRAQTHNGRPKRTIHPPKSKDIYPYESKKPKSKRLQQAMKFCQSVLKELMAKKHASYNYPFLEPVDPVSMNLPTYFDYVKEPMDLGTIAKKLNDWQYQTMEDFERDVRLVFKNCYTFNPDGTIVNMMGHRLEEVFNSKWADRPNLDDYDSDEDSRTQGDYDDYESEYSESDIDETIITNPAIQYLEEQLARMKVELQQLKKQELEKIRKERRLARGSKKRGKRSKGRSGSKNASSKGRRDKKNKLKTVVTYDMKRIITERINDLPTSKLERAIDIIKKSMPNISEDDEVELDLDTLDNHTILTLYNTFFRQYESSSGASNGLDGTSGVTRDASSLSPTSAGSRKRRSKALSQEEQSRQIEKIKNKLAILDSASPLSQNGSPGQIQSAAHNGFSSSSDDDVSSESEEE |  |  |  | no binding | binds | binding [14]: binds; binding [15]: binds; binding [16]: binds; binding [17]: binds; binding [18]: no binding; binding [19]: no binding |
| HA-Toa1 aa 210–286 (domain or fragment, UniProt P32773 210-286) SALLDTDEVGSELDDSDDDYLISEGEEDGPDENLMLCLYDKVTRTKARWKCSLKDGVVTINRNDYTFQKAQVEAEWV | binds | binds | binds |  |  |  |

More lines, main results first:

| binding [1] | binding [2] | binding [3] | binding [4] | binding [7] | Binder | other results |
| --- | --- | --- | --- | --- | --- | --- |
|  |  |  | binds | binds | HA-Toa1 synthesized in yeast (MET25-HA3-TOA1) (protein, UniProt P32773 1-286) MSNAEASRVYEIIVESVVNEVREDFENAGIDEQTLQDLKNIWQKKLTETKVTTFSWDNQFNEGNINGVQNDLNFNLATPGVNSSEFNIKEENTGNEGLILPNINSNNNIPHSGETNINTNTVEATNNSGATLNTNTSGNTNADVTSQPKIEVKPEIELTINNANITTVENIDDESEKKDDEEKEEDVEKTRKEKEQIEQVKLQAKKEKRSALLDTDEVGSELDDSDDDYLISEGEEDGPDENLMLCLYDKVTRTKARWKCSLKDGVVTINRNDYTFQKAQVEAEWV | binding [5]: no binding; binding [6]: binds; binding [8]: no binding |
| binds | binds | binds |  |  | HA-Toa1 synthesized in E. coli (HA3-TOA1) (protein, UniProt P32773 1-286) MSNAEASRVYEIIVESVVNEVREDFENAGIDEQTLQDLKNIWQKKLTETKVTTFSWDNQFNEGNINGVQNDLNFNLATPGVNSSEFNIKEENTGNEGLILPNINSNNNIPHSGETNINTNTVEATNNSGATLNTNTSGNTNADVTSQPKIEVKPEIELTINNANITTVENIDDESEKKDDEEKEEDVEKTRKEKEQIEQVKLQAKKEKRSALLDTDEVGSELDDSDDDYLISEGEEDGPDENLMLCLYDKVTRTKARWKCSLKDGVVTINRNDYTFQKAQVEAEWV | binding [9]: binds; binding [10]: binds; binding [11]: binds; binding [12]: no binding; binding [13]: no binding |

— publication PMC10716077
